Experimental findings from US20140178332A1 (published 2014) are described below.

The target in experiment [1] is T1, recombinant purified human IL-12 p70 (human, UniProt P29459 23-219).
T1 sequence 1: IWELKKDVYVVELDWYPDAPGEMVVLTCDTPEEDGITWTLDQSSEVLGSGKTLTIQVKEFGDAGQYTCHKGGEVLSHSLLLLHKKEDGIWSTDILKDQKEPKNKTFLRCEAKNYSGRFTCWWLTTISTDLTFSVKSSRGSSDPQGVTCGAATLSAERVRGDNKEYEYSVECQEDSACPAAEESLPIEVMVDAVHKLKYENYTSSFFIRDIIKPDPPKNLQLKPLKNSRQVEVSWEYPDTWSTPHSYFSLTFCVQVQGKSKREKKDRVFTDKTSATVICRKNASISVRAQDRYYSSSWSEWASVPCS
T1 sequence 2: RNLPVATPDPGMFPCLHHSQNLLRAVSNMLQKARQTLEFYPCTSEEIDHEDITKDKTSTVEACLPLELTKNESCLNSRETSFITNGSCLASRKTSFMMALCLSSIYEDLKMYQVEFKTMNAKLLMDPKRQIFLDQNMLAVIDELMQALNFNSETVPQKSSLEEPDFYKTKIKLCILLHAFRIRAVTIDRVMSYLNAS
Briefly: cell-based or functional assay.

Experiment [2] has as its target T1, recombinant purified human IL-12 p70. Briefly: SPR (BIAcore) as in Example 1.1.B, human IL-12p70. The protocol:
Approximately 5000 RU of goat anti-mouse IgG, (Fcγ), fragment specific polyclonal antibody (Pierce Biotechnology Inc, Rockford, Ill.) diluted in 10 mM sodium acetate (pH 4.5) was directly immobilized across a CM5 research grade biosensor chip using a standard amine coupling kit according to manufacturer's instructions and procedures at 25 μg/ml. Unreacted moieties on the biosensor surface were blocked with ethanolamine. Modified carboxymethyl dextran surface in flowcell 2 and 4 was used as a reaction surface. Unmodified carboxymethyl dextran without goat anti-mouse IgG in flow cell 1 and 3 was used as the reference surface. For kinetic analysis, rate equations derived from the 1:1 Langmuir binding model were fitted simultaneously to association and dissociation phases of all eight injections (using global fit analysis) with the use of Biaevaluation 4.0.1 software. Purified antibodies were diluted in HEPES-buffered saline for capture across goat anti-mouse IgG specific reaction surfaces. Mouse antibodies to be captured as a ligand (25 μg/ml) were injected over reaction matrices at a flow rate of 5 μl/min. The association and dissociation rate constants, kₒₙ (unit M⁻¹ s⁻¹) and koff (unit s⁻¹) were determined under a continuous flow rate of 25 μl/min. Rate constants were derived by making kinetic binding measurements at ten different antigen concentrations ranging from 10-200 nM. The equilibrium dissociation constant (unit M) of the reaction between mouse antibodies and recombinant purified human IL-12 p70 or recombinant purified human IL-12 p40 was then calculated from the kinetic rate constants by the following formula: KD=koff/kₒₙ. Binding is recorded as a function of time and kinetic rate constants are calculated. In this assay, on-rates as fast as 10⁶M⁻¹ s⁻¹ and off-rates as slow as 10⁻⁶ can be measured. […]
On the technique in general: SPR reads the build-up and loss of mass on a sensor chip optically.

The target of experiment [3] is T2, recombinant purified cyno IL-12 p70 (cynomolgus monkey).
T2 chain 1: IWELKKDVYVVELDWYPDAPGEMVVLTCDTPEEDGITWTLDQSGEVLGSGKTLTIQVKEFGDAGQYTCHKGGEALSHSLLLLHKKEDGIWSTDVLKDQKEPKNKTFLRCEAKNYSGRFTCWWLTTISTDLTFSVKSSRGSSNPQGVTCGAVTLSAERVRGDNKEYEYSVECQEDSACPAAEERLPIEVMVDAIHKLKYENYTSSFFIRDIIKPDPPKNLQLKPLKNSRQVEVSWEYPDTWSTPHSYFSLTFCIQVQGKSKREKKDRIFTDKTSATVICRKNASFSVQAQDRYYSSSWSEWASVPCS
T2 chain 2: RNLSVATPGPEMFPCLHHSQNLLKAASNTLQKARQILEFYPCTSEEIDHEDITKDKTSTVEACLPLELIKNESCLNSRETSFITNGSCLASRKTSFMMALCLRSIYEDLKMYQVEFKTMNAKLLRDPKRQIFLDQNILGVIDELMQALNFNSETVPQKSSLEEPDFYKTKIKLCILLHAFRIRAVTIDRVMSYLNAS
Briefly: cell-based or functional assay.

The term Kd denotes the concentration at which binding is half-saturated. The kon is the second-order rate constant of association. By koff is commonly meant the rate constant with which the complex falls apart.

B1: anti-IL-12p40 humanized antibody 1D4.9 (antibody, human IgG1, kappa)
heavy: EVTLRESGPALVKPTQTLTLTCTFSGFSLRKSVMGVSWIRQPPGKALEWLAHIYWDDDKYYNPSLKSRLTISKDTSKNQVVLTMTNMDPVDTATYYCTRRGIRSAMDYWGQGTTVTVSSASTKGPSVFPLAPSSKSTSGGTAALGCLVKDYFPEPVTVSWNSGALTSGVHTFPAVLQSSGLYSLSSVVTVPSSSLGTQTYICNVNHKPSNTKVDKKV[skipping human IgG1 Fc with changes]
light: DIVMTQSPDSLAVSLGERATINCKASQSVSNDVAWYQQKPGQPPKLLIYYASNRYTGVPDRFSGSGYGTDFTLTISSLQAEDVAVYYCQQDYNSPWTFGGGTKVEIKRTVAAPSVFIFPPSDEQLKSGTASVVCLLNNFYPREAKVQWKVDNALQSGNSQESVTEQDSKDSTYSLSSTLTLSKADYEKHKVYACEVTHQGLSSPVTKSFNRGEC
notes: Back-mutated CDR-grafted antibody; COS cells
As for B1, in experiment [1], the “Av. IC50 (nM) huIL-12, PHA blast assay” value was 0.035 nM. Further, in experiment [2], the Kd is below 0.01 nM and the kon amounted to 530000 M⁻¹ s⁻¹.

B2: anti-IL-12p40 humanized antibody 1D4.7 (antibody, human IgG1, kappa)
heavy: EVTLRESGPALVKPTQTLTLTCTFSGFSLRKSVMGVSWIRQPPGKALEWLAHIYWDDDKYYNPSLKSRLTISKDTSKNQVVLTMTNMDPVDTATYYCTRRGIRSAMDYWGQGTTVTVSSASTKGPSVFPLAPSSKSTSGGTAALGCLVKDYFPEPVTVSWNSGALTSGVHTFPAVLQSSGLYSLSSVVTVPSSSLGTQTYICNVNHKPSNTKVDKKV[skipping human IgG1 Fc with changes]
light: DVVMTQSPDSLAVSLGERATINCKASQSVSNDVAWYQQKPGQPPKLLIYYASNRYTGVPDRFSGSGYGTDFTLTISSLQAEDVAVYYCQQDYNSPWTFGGGTKVEIKRTVAAPSVFIFPPSDEQLKSGTASVVCLLNNFYPREAKVQWKVDNALQSGNSQESVTEQDSKDSTYSLSSTLTLSKADYEKHKVYACEVTHQGLSSPVTKSFNRGEC
notes: as for B1
For B2, the “Av. IC50 (nM) cyno IL-12, PHA blast assay” value in experiment [3] was determined as 0.031 nM. In addition, in experiment [1], the “Av. IC50 (nM) huIL-12, PHA blast assay” value came to 0.014 nM. In experiment [2], the Kd is below 0.01 nM, the koff is below 1e-05 s⁻¹ and the kon is above 100000 M⁻¹ s⁻¹.
